From article PMC6919601, “Identification of Plasmodium dipeptidyl aminopeptidase allosteric inhibitors by high throughput screening” (PLoS ONE, 2019) come the findings set out here.

About 230 (0.21%) of roughly 110,000 compounds showed an effect of 50% or more. Some of the results follow.
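Note: 30 min substrate incubation versus DMSO and 10 µM JCP410 controls.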

DPAP1, sequence (Q8IIJ9 whole entry, looked up): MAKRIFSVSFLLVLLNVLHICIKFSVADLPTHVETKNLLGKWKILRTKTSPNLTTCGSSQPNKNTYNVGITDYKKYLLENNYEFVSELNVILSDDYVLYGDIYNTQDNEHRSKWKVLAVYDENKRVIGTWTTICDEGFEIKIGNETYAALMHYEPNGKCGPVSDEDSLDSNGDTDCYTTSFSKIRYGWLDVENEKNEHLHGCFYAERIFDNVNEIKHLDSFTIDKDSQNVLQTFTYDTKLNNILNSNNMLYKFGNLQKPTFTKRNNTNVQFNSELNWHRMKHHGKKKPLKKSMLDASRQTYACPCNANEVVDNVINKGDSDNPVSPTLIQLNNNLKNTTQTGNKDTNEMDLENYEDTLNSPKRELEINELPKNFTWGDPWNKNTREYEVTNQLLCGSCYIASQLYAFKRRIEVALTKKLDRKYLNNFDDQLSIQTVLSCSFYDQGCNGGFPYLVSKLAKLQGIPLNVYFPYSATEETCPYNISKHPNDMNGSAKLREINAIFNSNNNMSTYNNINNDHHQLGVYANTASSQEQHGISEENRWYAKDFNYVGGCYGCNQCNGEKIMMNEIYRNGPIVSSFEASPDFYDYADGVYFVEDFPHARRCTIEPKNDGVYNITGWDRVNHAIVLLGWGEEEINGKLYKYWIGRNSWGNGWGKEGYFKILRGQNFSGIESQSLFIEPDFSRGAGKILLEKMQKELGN

This test has as its target DPAP1 (Plasmodium falciparum, UniProt Q8IIJ9). As to the kind of experiment: primary screen, percent inhibition; read by cleavage of a fluorogenic dipeptide substrate; higher = more effect of the substance. Also noted: species or system P. falciparum D10 trophozoite lysates; single well.
`COc1ccc(NC(=O)C2CCN(S(=O)(=O)c3ccccc3)CC2)c(OC)c1`: the “% Inhibition @ 10 uM” value amounted to 6.63%.

For `CCN(CC)CCCNC(=O)C1CCN(C(=O)c2ccc(-n3ccc4ccccc43)s2)CC1`, the “% Inhibition @ 10 uM” value was determined as 1.44%.

Take `Cc1ccc(NC(=O)c2ccccc2F)c(NC(=O)c2ccccc2F)c1`: the “% Inhibition @ 10 uM” value is on record as 0.727%.

Regarding `CCC(C)NC(=O)CN(CCc1ccccc1)S(=O)(=O)c1ccc(Br)cc1` (centres unmarked), the “% Inhibition @ 10 uM” value is on record as 20.7%.

For `CCOC(=O)C1=C(N)OC(C)=C(C(C)=O)C12C(=O)Nc1ccccc12` (centres unmarked), the “% Inhibition @ 10 uM” value was -5.28%.

For `Cc1nc2c(c3c1[nH]c1ccccc13)C(=O)CC(C)(C)C2`, the “% Inhibition @ 10 uM” value is listed as 3.83%.

Take `COc1ccc(S(=O)(=O)NCC2CCC(C(=O)NCc3ccc(Cl)cc3)CC2)cc1` (centres unmarked): the “% Inhibition @ 10 uM” value was -10.3%.

As for `O=C1C2(Cc3ccccc3)CN3CN(C2)CC1(Cc1ccccc1)C3`, the “% Inhibition @ 10 uM” value is 0.774%.

Consider `O=C(/C=C\c1ccccc1)Nc1c2c(nn1-c1ccc(Cl)cc1)CS(=O)(=O)C2`, for which the “% Inhibition @ 10 uM” value is reported as -0.349%.

Regarding `Cc1ccc(S(=O)(=O)NCCC(=O)NCc2ccccc2Cl)cc1`, the “% Inhibition @ 10 uM” value is listed as -9.73%.

Consider `CCOC(=O)c1sc(NC(=O)COc2ccc(C(C)(C)C)cc2)c(C(=O)OCC)c1C`, for which the “% Inhibition @ 10 uM” value is reported as -0.769%.

Regarding `CCN(Cc1ccccc1)C(=O)CSc1nc(C)c(Cl)c(C)c1C#N`, the “% Inhibition @ 10 uM” value is given as -2.5%.

Regarding `CCCCCn1c(CNC(=O)COC)nc2ccccc21`, the “% Inhibition @ 10 uM” value is -1.73%.

With `CCOC(=O)c1c(C)oc2ncnc(N3CCN(C(=O)OCC)CC3)c12`, the “% Inhibition @ 10 uM” value worked out at 1.08%.

For the molecule `COc1cc(C2C(C#N)=C(N)OC3=C2C(=O)CC(C)(C)C3)ccc1OCc1ccc(C)cc1` (centres unmarked), the “% Inhibition @ 10 uM” value turned out to be 5.49%.

In the case of `CCO/C(O)=C1/C(C)=NC2=C(C(=O)CC(c3ccccc3)C2)C1c1cccnc1` (centres unmarked), the “% Inhibition @ 10 uM” value is reported as 1.67%.

Regarding `COc1ccc(Nc2oc(COc3cccc(C)c3)nc2C#N)cc1`, the “% Inhibition @ 10 uM” value turned out to be 2.01%.

For `Cc1cccc(N2CC(=O)NC2=O)c1`, the “% Inhibition @ 10 uM” value was found to be 2.78%.

As to `CCn1cc(C2=NCC(C)O2)c2ccccc21` (centres unmarked), the “% Inhibition @ 10 uM” value is listed as 2.9%.

Consider `CCOC(=O)c1c(C)oc2cc(Cl)c(O)c(CN(C)C)c12`, for which the “% Inhibition @ 10 uM” value is -1.26%.

Take `CCc1ccccc1NC(=O)c1cccc(C)c1`: the “% Inhibition @ 10 uM” value is listed as -0.197%.

As for `COc1ccccc1OCc1ccc(C(=O)N2N=C(C)CC2(O)C(F)(F)F)cc1` (centres unmarked), the “% Inhibition @ 10 uM” value was 0.389%.

As to `COc1cc(C=O)cc(Br)c1OCc1ccccc1Br`, the “% Inhibition @ 10 uM” value came out at 0.503%.

On to `CCCCOc1ccc(/C=C2\SC(=O)NC2=O)cc1OCC`, for which the “% Inhibition @ 10 uM” value is listed as 1.64%.

As for `Cc1cc(C)c2ccc(C3C(=O)c4ccccc4C3=O)nc2c1`, the “% Inhibition @ 10 uM” value is listed as -1.11%.

For `CC(=O)Nc1ccc(CN2CCN(c3cccc(Cl)c3)CC2)cc1`, the “% Inhibition @ 10 uM” value is recorded as 1.4%.

`COc1ccc(C2=N/C(=C\c3ccc4c(c3)OCO4)C(=O)O2)c(Cl)c1`: the “% Inhibition @ 10 uM” value is reported as 5.32%.

Consider `COc1ccc(C2C(C(=O)c3ccc(C)cc3)=C(O)C(=O)N2CCN2CCOCC2)c(OC)c1` (centres unmarked), for which the “% Inhibition @ 10 uM” value is given as -1.61%.

For `c1ccc(CC2CCN(c3ncnc4c3cnn4-c3ccccc3)CC2)cc1`, the “% Inhibition @ 10 uM” value came out at 7.92%.

For `Cc1nc(-c2ccc(Br)cc2)nc(O)c1C`, the “% Inhibition @ 10 uM” value was 0.937%.

On to `O=C(NC(Nc1ccc(Cl)cc1)C(=O)c1ccccc1)c1ccccc1` (centres unmarked), for which the “% Inhibition @ 10 uM” value came to 3.31%.

As to `CC1=C(c2ccc(C)c(C)c2)S(=O)(=O)N=C1N1CCC(C(=O)NCCCN2CCCC2=O)CC1`, the “% Inhibition @ 10 uM” value came to 0.0575%.

`COc1ccccc1C1=N/C(=C\c2ccc(C(C)C)cc2)C(=O)O1`: the “% Inhibition @ 10 uM” value is recorded as -0.597%.

Turning to `COc1ccc(Cl)cc1C(=O)Nc1ccc(CC#N)cc1`, the “% Inhibition @ 10 uM” value was 3.21%.

Consider `COc1cc(/C=C2/NC(=O)NC2=O)ccc1OCC(=O)O`, for which the “% Inhibition @ 10 uM” value turned out to be 1.31%.

Consider `CC(C)CC(=O)Nc1nc(-c2ccc3ccccc3c2)cs1`, for which the “% Inhibition @ 10 uM” value is recorded as -4.33%.

On to `Cc1cc(OCC(=O)Nc2ccc(S(=O)(=O)N3CCCC3)cc2)ccc1Cl`, for which the “% Inhibition @ 10 uM” value worked out at 5.15%.

Consider `COc1ccc(C(=O)Nc2sc3c(c2C(N)=O)CCC(C)C3)cc1` (centres unmarked), for which the “% Inhibition @ 10 uM” value came out at 0.795%.

Consider `Cc1ccc(CC(=O)Nc2nnc(C(F)(F)F)s2)cc1`, for which the “% Inhibition @ 10 uM” value is -2.98%.

On to `Clc1cccc(N2CCN(Cc3ccc(Cl)c(Cl)c3)CC2)c1`, for which the “% Inhibition @ 10 uM” value is on record as 1.55%.

As to `O=C(CCCc1nc(-c2ccccc2)no1)NCc1ccccc1`, the “% Inhibition @ 10 uM” value was -2.92%.

Regarding `CC(=O)c1ccc(NC(=O)Cn2c(-c3nonc3N)nc3ccccc32)cc1`, the “% Inhibition @ 10 uM” value was 0.121%.

Take `CC1CN(C/C(Cl)=C/c2ccccc2)CC(C)O1` (centres unmarked): the “% Inhibition @ 10 uM” value is 3.48%.

As for `CCOC(=O)c1conc1-c1ccc(Cl)cc1Cl`, the “% Inhibition @ 10 uM” value is 0.177%.

For the molecule `CC1=CC(=O)N(CCNC(=O)C2CCCNC2=O)C1=O` (centres unmarked), the “% Inhibition @ 10 uM” value was found to be 5.23%.

Take `CC(NC(=O)CSc1nc(N)cc(O)n1)c1ccccc1` (centres unmarked): the “% Inhibition @ 10 uM” value is -3.21%.

Consider `Cc1ccc(S(=O)(=O)N(CC(=O)N2CCN(c3ccccc3)CC2)c2ccccc2F)cc1`, for which the “% Inhibition @ 10 uM” value is on record as -6.36%.

In the case of `Cc1nc(C)c(C(=O)Nc2nnc(C(C)C)s2)s1`, the “% Inhibition @ 10 uM” value is reported as -4.54%.

Consider `CC(C)C[C@H](NC(=O)OCCCC1CCCCC1)C(=O)NCC#N`, for which the “% Inhibition @ 10 uM” value is -4.72%.

For `COc1ccc2nc(N3CCC(C(=O)NCCC(C)C)CC3)sc2c1`, the “% Inhibition @ 10 uM” value is listed as 1.07%.
